Measured values: PubChem BioAssay AID1745853 (National Center for Advancing Translational Sciences (NCATS), 2022)
Values joined by “and” are separate entries in the source; they are usually repeats but may differ in a detail not shown here. Identical values can stand only once. This is one part of the list. Shown are side measurements of this screen, not its main read-out; they come without a call.

Tests used:
Assay in all cases: Primary Screen for Target Class Profiling of Small Molecule Inhibitors of Methyltransferases
[1] = molecular target: Glycine N-methyltransferase (Homo sapiens) (UniProt Q14749); settings: purified enzyme, MTase-Glo SAH luminescence; measured here: GNMT inhibition; at 40 µM; stronger effect = lower value
In short: (§1)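 Each enzyme was reacted with SAM and its substrate, with compounds tested once at 40 uM; SAH formed was read by MTase-Glo luminescence.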

[2] = molecular target: Guanidinoacetate N-methyltransferase (Homo sapiens) (UniProt Q14353); settings: purified enzyme, MTase-Glo SAH luminescence; measured here: GAMT inhibition; at 40 µM; stronger effect = lower value
In short: as §1

[3] = molecular target: Histamine N-methyltransferase (Homo sapiens) (UniProt P50135); settings: purified enzyme, MTase-Glo SAH luminescence; measured here: HNMT inhibition; at 40 µM; stronger effect = lower value
In short: as §1

[4] = molecular target: Nicotinamide N-methyltransferase (Homo sapiens) (UniProt P40261); settings: purified enzyme, MTase-Glo SAH luminescence; measured here: NNMT inhibition; at 40 µM; stronger effect = lower value
In short: as §1

[5] = molecular target: Phenylethanolamine N-methyltransferase (Homo sapiens) (UniProt P11086); settings: purified enzyme, MTase-Glo SAH luminescence; measured here: PNMT inhibition; at 40 µM; stronger effect = lower value
In short: as §1
% is scaled to controls: 0 for no effect and ±100 for the full control effect.

Compound	activity change, negative = inhibition [1] [%]	activity change, negative = inhibition [2]	activity change, negative = inhibition [3] [%]	activity change, negative = inhibition [4]	activity change, negative = inhibition [5]
O=C(CCc1nnc2n(Cc3ccc(F)cc3)c(=O)c3ccccc3n12)NCCc1ccc(Cl)cc1	-4.95	-4.45%	-3.81	-5.35%	-6.46%
COc1cccc(C(=O)Cn2nc3n(C(C)C)c(=O)c4ccc(C(=O)NC(C)C)cc4n3c2=O)c1	0.892	0%	7.91	0.176%	4.12%
O=C(Nc1cc(F)ccc1F)N1Cc2c(sc3c2CCCC3)-n2cccc2C1c1ccccc1 (stereo not given)	-0.394	2.67%	-3.73	-5.22%	1.13%
NC(=O)c1cccc(-c2cc(OC(=O)NC3CCCCC3)ccc2O)c1	4.09	8.93%	9.91	-14.3%	5.47%
CC1(C)CC[C@]2(C(=O)O)[C@H](O)C[C@]3(C)C(=CCC4[C@@]5(C)CC[C@H](O[C@@H]6O[C@H](CO[C@@H]7OC[C@H](O)[C@H](O)[C@H]7O[C@@H]7OC[C@@H](O)[C@H](O)[C@H]7O)[C@@H](O)[C@H](O)[C@H]6O[C@@H]6O[C@H](CO)[C@@H](O)[C@H](O)[C@H]6O)C(C)(C)C5CC[C@]43C)[C@@H]2C1 (stereo not given in full)	0.429	-3.86%	6.55	-14.4%	-3.94%
COc1ccc(-c2cc3n(n2)CC(C)(C(=O)NCc2ccccc2)N(CCc2ccc(Cl)cc2)C3=O)cc1 (stereo not given)	5.66	4.39%	8.56	12.5%	2.86%
O=C(c1cc(-c2ccccc2)nc2ccccc12)N1CCc2c(nc[nH]c2=O)C1	-7.97	-2.38%	-2.64	-13.5%	-6.02%
NS(=O)(=O)C#Cc1ccccc1	-15.3	-3.77% and 7.02%	0.834	-4.17% and -6.15%	8.16% and 3.19%
CC(=O)Nc1c2n(c3ccccc13)CC(C)(C(=O)NCCC(C)C)N(Cc1cccc(Cl)c1)C2=O (stereo not given)	-6.01	3.38%	-4.68	-5.11%	-2.13%
Cc1cc2c(cc3n2CC(C)(C(=O)NC2CCCCCCC2)N(CCc2ccc(Cl)cc2)C3=O)o1 (stereo not given)	-4.28	-5.06%	6.38	-4.47%	-6.13%
CCC(CC)Nc1ncnc2c1CN(C1CCC1)C(=O)CN2C	-9.96	-7.53%	-8.64	-17.4%	-9.1%
CCNC(=O)Nc1ccc([C@H]2OCC(=O)N(Cc3scnc3C)[C@@H]2CO)cc1	-4.82	-12.6%	-2.26	-7.34%	-5.19%
CC(C)(O)CNc1nc(Nc2ccnc(C(F)(F)F)c2)nc(-c2cccc(C(F)(F)F)n2)n1	-6.6	0.418%	-7.02	-8.29%	0.876%
CN1C[C@H](O)C[C@H]1c1nnc2n1CCN(C(=O)C1CCCCC1)CC2	-1.5	0.787%	2.96	-3.84%	-12.9%
c1ccc(CN2CCC3(CCCc4ccccc43)CC2)cc1	-9.34	2.23%	-3.78	-8.13%	2.86%
